Data reported in the supplement of paper PMC3334620.
Whole data set: some 33,000 sequences, median “E-score (-0.5 to 0.5)” near -0.036, cut for the highest 2% near 0.37. The list shows a part of the results.

target: T1, Yer064c (UniProt P40041); assay: PBM E-score (8-mer binding enrichment) (E-score (-0.5 to 0.5)); higher = stronger / more preferred TF binding; most listed sequences are background and not binding sites; settings: protein concentration: 200 nM; construct: GST-full length
T1 sequence: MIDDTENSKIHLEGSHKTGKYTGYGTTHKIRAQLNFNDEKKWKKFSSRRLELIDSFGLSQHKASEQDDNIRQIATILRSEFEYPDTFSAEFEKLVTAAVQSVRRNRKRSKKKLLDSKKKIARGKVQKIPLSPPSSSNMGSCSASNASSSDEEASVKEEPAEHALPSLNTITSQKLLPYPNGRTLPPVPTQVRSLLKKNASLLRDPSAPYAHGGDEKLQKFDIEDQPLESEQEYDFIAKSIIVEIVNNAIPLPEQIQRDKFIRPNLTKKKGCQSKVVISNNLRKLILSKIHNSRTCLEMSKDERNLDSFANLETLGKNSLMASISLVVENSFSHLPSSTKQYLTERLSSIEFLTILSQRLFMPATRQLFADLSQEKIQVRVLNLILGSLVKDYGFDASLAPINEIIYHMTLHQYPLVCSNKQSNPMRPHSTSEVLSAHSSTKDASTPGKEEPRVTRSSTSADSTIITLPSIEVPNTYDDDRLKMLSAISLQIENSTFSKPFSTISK
Summary of the method: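 Masliner-normalised scans of fluorescent anti-GST signal were the basis for scoring. That signal came from GST-tagged yeast transcription factors applied at about 100-200 nM to double-stranded universal all-10-mer Agilent arrays on fresh or once-stripped slides. Each ungapped eight-base word, pooled with its reverse complement, received an E-score from the Universal PBM Analysis Suite.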

Sequence | PBM E-score
ACTCGCGC | 0.184
ATCTCTTC | -0.114
GAGAGTTA | 0.0441
CGAAAATA | -0.0465
AGATCAGC | 0.0642
CCATTACC | -0.108
AATTTATG | -0.00855
GATTTTGA | 0.244
CACGGCCG | -0.012
CATACGCA | -0.0763
AGGACGAC | 0.139
GTTGATGA | 0.278
ACTCATGA | 0.402
CATTCTCA | 0.0264
TATATAAA | 0.163
ACCTCACC | 0.0366
CCAATGGG | -0.239
TATAATAA | 0.115
AGACCTTA | 0.174
TTTCCAAA | -0.0334
AGATTACG | 0.0718
ATCTATCG | -0.162

Sequence | PBM E-score
AAGCCCCA | -0.246
ATTTTCTG | 0.126
ACGGAGCT | -0.289
AGCAAGTC | 0.101
ATAACTGC | 0.0557
AACAGTAG | -0.0763
CGCCCCTA | -0.188
GTAACACA | 0.0697
CGGACTGA | 0.178
CGTACTGA | 0.137
CAAGAGAA | -0.0423
ACGACGTC | -0.116
GGACTAAA | 0.331
CGATCGGC | -0.258
AATCAGAG | 0.269
AAAGTCGC | 0.173
ATGGGCAG | -0.2
CCAAACGA | -0.01
CCCGAAGA | -0.278
GCGAGAAC | -0.0574
TACGGCCA | -0.26
AGTCGACC | 0.169

Sequence | PBM E-score
GCATCCGA | -0.165
GCCCCGCA | -0.336
CGGCTTTA | -0.0824
ACAGCACA | -0.0561
ACCTGTCT | -0.00482
AACTAACG | -0.00567
ATCTGTAA | 0.0356
ACTTAGCT | -0.0337
CAATTGAG | 0.15
CTGCTTGC | -0.21
GCCTAGGA | -0.205
ACACCCCG | -0.135
GCTAAGTA | 0.0764
CCTTTGCA | -0.134
AGCGGCCT | -0.232
AGCTGACA | 0.00999
CCGTATTC | -0.0188
ACGCTCGA | -0.244
GCTGCGCA | -0.0154
AGTTGTAG | -0.00589
ACAAGGGA | -0.248
AGTAAGAG | 0.042

Sequence | PBM E-score
TAAACTGA | 0.141
AACATAGG | -0.104
CACACCGC | 0.0449
GCGTCACA | -0.13
CCTCCAAA | -0.116
ACGTCGGC | 0.0442
ACCGCACA | -0.211
AAAGGCTA | -0.0748
ACCTATTC | -0.161
GTCATTGA | 0.261
AAATCGGA | 0.118
GATTCTAA | 0.28
AAGTCCGG | -0.0349
AATTAAAT | 0.135
CCATTTCC | 0.105
CAGCCGAG | 0.0098
GCGTTTTA | -0.151
CACGATAC | -0.0728
AATAATAA | 0.124
GTCCAAGA | -0.112
